Assay in all cases: pull-down
In test [1] the target is SKP1 (Homo sapiens) (UniProt P63208). As to conditions: 150 mM NaCl, 50 mM Tris pH 8.0, 0.25% NP-40, 1 mM DTT; 4 C, 2 h; 100 ug nuclear extract; double strand, one strand shown.
The target of test [2] is T1, TFAM (Homo sapiens) (UniProt Q00059).
T1 sequence: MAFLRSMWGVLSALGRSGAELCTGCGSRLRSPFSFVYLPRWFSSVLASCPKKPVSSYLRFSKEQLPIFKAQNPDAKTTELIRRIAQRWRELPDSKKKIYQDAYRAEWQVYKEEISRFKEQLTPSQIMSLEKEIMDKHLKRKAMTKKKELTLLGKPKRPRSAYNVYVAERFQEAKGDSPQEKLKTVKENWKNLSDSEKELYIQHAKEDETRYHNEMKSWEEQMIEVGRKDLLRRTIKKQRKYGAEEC
As to conditions: 150 mM NaCl, 50 mM Tris pH 8.0, 0.25% NP-40, 1 mM DTT, 4 C, 2 h, 100 ug nuclear extract, double strand, one strand shown.

Test [3] addresses T2, TFAP4 (UniProt Q01664).
T2 sequence: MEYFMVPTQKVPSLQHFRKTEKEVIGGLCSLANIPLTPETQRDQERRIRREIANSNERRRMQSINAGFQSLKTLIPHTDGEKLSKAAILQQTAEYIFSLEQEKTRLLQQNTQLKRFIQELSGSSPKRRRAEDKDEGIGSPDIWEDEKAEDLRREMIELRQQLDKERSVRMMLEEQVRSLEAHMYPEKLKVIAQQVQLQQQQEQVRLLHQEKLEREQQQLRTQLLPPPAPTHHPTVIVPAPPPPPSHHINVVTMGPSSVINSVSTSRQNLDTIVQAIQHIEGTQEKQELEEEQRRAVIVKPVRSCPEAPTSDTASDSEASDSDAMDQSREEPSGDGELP
The note with it: 150 mM NaCl, 50 mM Tris pH 8.0, 0.25% NP-40, 1 mM DTT; 4 C, 2 h; 100 ug nuclear extract; double strand, one strand shown.

Test [4] concerns the target T3, TPP1 (Homo sapiens) (UniProt O14773).
T3 sequence: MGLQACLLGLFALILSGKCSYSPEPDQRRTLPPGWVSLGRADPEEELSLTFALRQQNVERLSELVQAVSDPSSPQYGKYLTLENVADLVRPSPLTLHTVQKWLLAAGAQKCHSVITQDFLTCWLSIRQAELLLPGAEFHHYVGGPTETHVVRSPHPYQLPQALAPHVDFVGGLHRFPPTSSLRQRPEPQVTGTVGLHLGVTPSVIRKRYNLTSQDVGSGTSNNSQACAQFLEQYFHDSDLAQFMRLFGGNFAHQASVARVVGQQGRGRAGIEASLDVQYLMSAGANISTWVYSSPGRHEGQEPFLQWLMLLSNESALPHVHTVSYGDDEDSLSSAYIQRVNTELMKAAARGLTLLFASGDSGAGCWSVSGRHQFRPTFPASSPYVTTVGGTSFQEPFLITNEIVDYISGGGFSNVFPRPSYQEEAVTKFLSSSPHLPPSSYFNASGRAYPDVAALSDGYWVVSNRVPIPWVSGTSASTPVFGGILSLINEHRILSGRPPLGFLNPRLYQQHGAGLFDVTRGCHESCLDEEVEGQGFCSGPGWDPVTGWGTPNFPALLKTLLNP
The note with it: 150 mM NaCl, 50 mM Tris pH 8.0, 0.25% NP-40, 1 mM DTT; 4 C, 2 h; 100 ug nuclear extract; double strand, one strand shown.

For test [5], the target named is XPC (Homo sapiens) (UniProt Q01831). The note with it: 150 mM NaCl, 50 mM Tris pH 8.0, 0.25% NP-40, 1 mM DTT; 4 C, 2 h; 100 ug nuclear extract; double strand, one strand shown.
Test [6] concerns the target XRCC1 (Homo sapiens) (UniProt P18887). The note with it: 150 mM NaCl, 50 mM Tris pH 8.0, 0.25% NP-40, 1 mM DTT, 4 C, 2 h, 100 ug nuclear extract, double strand, one strand shown.
The target of test [7] is XRCC5 (Homo sapiens) (UniProt P13010). As to conditions: 150 mM NaCl, 50 mM Tris pH 8.0, 0.25% NP-40, 1 mM DTT; 4 C, 2 h; 100 ug nuclear extract; double strand, one strand shown.
For test [8], the target named is XRCC6 (Homo sapiens) (UniProt P12956). As to conditions: 150 mM NaCl, 50 mM Tris pH 8.0, 0.25% NP-40, 1 mM DTT; 4 C, 2 h; 100 ug nuclear extract; double strand, one strand shown.
In test [9] the target is T4, ZNF740 (Homo sapiens) (UniProt Q8NDX6).
T4 sequence: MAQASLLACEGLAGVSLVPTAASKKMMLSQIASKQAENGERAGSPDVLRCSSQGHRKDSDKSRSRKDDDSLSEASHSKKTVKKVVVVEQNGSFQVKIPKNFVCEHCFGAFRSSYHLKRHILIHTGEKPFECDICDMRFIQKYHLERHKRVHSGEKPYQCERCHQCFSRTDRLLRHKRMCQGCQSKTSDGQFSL
The note with it: 150 mM NaCl, 50 mM Tris pH 8.0, 0.25% NP-40, 1 mM DTT; 4 C, 2 h; 100 ug nuclear extract; double strand, one strand shown.

Test [10] addresses TDP1 (Homo sapiens) (UniProt Q9NUW8). As to conditions: 150 mM NaCl, 50 mM Tris pH 8.0, 0.25% NP-40, 1 mM DTT; 4 C, 2 h; 100 ug nuclear extract; double strand, one strand shown.
Test [11] has as its target TUBA4A (Homo sapiens) (UniProt P68366). As to conditions: 150 mM NaCl, 50 mM Tris pH 8.0, 0.25% NP-40, 1 mM DTT; 4 C, 2 h; 100 ug nuclear extract; double strand, one strand shown.
Test [12] has as its target USF2 (UniProt Q15853). The note with it: 150 mM NaCl, 50 mM Tris pH 8.0, 0.25% NP-40, 1 mM DTT; 4 C, 2 h; 100 ug nuclear extract; double strand, one strand shown.
The mark [13] stands for this setting: 5mC at 15,17 (strand 1), 5mC at 14,16 (strand 2).

Where “and” joins values, the source holds several entries; their conditions need not be identical. Equal values may be shown once. This is one part of the list. Measured with an extract: partners may take part in the binding.

UniProt Q01831, sequence (Q01831 whole entry): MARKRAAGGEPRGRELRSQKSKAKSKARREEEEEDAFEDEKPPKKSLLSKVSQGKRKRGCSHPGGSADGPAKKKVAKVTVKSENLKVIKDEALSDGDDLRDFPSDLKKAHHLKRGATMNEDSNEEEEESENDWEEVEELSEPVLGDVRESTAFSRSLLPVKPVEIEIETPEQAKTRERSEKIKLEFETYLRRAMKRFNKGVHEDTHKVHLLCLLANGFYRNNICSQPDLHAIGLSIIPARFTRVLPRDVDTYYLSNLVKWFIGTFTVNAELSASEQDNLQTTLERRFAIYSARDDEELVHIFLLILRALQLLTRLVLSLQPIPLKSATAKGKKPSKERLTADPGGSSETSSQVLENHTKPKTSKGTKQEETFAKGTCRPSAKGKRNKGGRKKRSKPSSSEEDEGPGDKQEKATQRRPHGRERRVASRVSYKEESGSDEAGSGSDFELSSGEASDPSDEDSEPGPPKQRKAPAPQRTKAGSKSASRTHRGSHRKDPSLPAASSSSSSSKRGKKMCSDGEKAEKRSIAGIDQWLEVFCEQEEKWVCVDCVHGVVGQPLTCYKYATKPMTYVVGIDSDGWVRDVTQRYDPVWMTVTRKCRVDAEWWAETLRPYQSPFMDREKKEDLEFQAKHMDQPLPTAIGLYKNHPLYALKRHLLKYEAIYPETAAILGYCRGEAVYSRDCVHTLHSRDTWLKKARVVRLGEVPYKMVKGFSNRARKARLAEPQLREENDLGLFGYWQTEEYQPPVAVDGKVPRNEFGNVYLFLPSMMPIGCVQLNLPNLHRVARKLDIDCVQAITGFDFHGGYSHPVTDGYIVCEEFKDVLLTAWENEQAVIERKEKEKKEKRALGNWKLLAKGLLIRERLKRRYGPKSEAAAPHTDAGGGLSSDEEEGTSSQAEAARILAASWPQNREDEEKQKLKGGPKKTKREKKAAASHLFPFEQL
UniProt P12956, sequence (P12956 whole entry): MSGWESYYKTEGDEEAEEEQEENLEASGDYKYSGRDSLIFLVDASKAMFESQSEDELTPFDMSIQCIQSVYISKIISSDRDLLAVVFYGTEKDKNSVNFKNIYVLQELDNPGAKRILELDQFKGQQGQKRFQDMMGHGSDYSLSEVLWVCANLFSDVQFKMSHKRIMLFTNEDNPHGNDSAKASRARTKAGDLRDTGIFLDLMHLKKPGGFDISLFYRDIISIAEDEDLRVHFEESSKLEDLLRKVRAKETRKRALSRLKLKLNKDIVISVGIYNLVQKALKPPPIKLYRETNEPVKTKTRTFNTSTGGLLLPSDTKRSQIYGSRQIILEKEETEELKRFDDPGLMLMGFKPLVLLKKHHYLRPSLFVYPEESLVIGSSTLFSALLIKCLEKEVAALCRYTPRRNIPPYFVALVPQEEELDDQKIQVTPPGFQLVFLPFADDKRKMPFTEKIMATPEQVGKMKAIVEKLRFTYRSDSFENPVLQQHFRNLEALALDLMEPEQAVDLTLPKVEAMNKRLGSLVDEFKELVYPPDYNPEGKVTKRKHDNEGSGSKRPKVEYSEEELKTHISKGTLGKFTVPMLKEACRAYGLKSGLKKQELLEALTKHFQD
UniProt P13010, sequence (P13010 whole entry): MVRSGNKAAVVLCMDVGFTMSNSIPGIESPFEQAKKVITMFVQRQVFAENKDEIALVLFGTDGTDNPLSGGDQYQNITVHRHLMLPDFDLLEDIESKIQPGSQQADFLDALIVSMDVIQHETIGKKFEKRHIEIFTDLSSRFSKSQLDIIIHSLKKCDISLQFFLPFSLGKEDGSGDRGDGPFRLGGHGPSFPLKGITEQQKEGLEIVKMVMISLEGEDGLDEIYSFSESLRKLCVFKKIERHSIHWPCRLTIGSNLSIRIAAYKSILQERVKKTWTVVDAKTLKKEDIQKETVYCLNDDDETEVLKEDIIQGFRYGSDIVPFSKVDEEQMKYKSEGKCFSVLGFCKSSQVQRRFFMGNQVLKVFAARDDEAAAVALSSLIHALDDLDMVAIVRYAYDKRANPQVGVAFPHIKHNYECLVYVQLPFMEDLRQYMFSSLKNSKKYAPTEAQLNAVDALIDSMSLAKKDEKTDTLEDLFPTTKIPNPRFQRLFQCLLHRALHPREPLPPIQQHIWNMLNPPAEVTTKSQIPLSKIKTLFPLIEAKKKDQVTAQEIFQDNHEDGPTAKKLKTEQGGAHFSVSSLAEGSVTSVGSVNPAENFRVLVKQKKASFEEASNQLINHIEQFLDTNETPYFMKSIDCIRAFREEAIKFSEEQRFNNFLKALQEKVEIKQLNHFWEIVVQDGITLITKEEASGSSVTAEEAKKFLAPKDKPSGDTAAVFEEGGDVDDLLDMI
UniProt P63208, sequence (P63208 whole entry): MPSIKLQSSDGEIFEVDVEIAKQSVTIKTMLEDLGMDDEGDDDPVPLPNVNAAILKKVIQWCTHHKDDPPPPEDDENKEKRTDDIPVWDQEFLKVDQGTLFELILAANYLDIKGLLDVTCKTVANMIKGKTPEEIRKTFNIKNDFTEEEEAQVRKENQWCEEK
UniProt Q15853, sequence (Q15853 whole entry): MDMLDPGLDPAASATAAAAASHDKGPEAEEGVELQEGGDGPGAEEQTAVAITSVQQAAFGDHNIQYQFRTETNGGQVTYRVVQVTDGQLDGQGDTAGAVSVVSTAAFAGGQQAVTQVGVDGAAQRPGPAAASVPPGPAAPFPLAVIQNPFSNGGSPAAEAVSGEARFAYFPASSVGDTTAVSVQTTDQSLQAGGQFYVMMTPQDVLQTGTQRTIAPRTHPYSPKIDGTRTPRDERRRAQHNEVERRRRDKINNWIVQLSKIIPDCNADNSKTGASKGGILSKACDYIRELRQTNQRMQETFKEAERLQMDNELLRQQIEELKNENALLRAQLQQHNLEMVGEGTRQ
UniProt P68366, sequence (P68366 whole entry): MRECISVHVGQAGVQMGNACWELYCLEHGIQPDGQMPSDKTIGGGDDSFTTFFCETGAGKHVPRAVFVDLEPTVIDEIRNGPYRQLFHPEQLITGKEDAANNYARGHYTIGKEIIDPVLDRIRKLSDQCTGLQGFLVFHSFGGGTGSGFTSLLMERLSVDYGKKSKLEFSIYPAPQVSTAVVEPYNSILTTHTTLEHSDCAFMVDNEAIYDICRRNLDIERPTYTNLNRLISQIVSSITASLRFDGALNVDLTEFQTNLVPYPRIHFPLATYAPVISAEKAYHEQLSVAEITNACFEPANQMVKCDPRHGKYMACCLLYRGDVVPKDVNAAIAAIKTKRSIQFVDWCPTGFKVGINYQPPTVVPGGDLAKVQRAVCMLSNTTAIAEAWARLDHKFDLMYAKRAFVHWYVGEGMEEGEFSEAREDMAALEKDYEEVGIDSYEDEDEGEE
UniProt Q9NUW8, sequence (Q9NUW8 whole entry): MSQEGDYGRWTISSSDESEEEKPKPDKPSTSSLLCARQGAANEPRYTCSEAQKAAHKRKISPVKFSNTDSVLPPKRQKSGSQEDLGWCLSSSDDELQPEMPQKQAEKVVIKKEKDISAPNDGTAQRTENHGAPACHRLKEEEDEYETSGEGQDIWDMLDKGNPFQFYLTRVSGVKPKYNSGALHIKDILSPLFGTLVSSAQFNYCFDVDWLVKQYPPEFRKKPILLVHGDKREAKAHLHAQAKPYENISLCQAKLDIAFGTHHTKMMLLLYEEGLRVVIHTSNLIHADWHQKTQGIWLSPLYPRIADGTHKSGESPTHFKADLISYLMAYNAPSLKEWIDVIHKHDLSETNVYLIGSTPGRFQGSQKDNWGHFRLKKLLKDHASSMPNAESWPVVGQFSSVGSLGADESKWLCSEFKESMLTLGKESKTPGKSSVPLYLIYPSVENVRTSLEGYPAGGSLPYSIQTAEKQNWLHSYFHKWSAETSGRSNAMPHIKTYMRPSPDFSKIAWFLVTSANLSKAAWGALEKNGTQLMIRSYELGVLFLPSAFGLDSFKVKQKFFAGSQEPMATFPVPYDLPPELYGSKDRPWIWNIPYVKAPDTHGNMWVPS

For the sequence “GCCGCCGCCCTTCTCGCGAGACTGCCGGGCC [CGCG bait]”, the half-maximal binding in test [1] was 59.5 nM; in test [2] it was 162 nM; in [3] it was 247 nM; in test [4], 424 nM; in [5] it was 30.5 nM and 122 nM; in test [6], 120 nM. For the same sequence, the half-maximal binding was found to be 101 nM in test [7] and 99.6 nM in test [8].

Regarding “GCCGCCGCCCTTCTCGCGAGACTGCCGGGCC [methylated CGCG bait]”, the half-maximal binding is 169 nM in test [2] (setting [13]) and 114 nM in test [6] (setting [13]).

Turning to GAGAGCCCCGCCCCCTGGCT [SP/KLF bait], the half-maximal binding amounted to 354 nM in [6], 40.6 nM in test [7], 34.5 nM in test [8] and 135 nM in [9].

On to “GCCGCCGCCCTCCCACGCGCTGCCGGGCC [BEND3 bait]”, for which the half-maximal binding in [10] is 103 nM; in [2] it was 139 nM; in test [3] it was 440 nM; in test [11], 101 nM; in test [12], 156 nM; in [5], 89 nM. The half-maximal binding in test [6] was found to be 144 nM; in [7], 10.5 nM; in test [8], 10.6 nM; in test [9], 33.4 nM.

With “GAGAGAAAATAAAACTGGCT [SP/KLF negative control bait]”, the half-maximal binding in test [2] worked out at 479 nM; in test [6] it was 390 nM.

The values above are taken from publication PMC10407929.
